The campaign covered roughly 310,000 compounds. About 14,000 (4.5%) showed an effect of 50% or more. Effects have a minus sign here. The list shows a part of the results.
Molecular target: human ether-à-go-go-related gene (hERG) potassium channel (human, UniProt Q12809)
Assay: primary screen, population patch clamp on CHO cells stably expressing hERG
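Further: peak tail current of the secondary pulse compared with the same well before compound.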

human ether-à-go-go-related gene (hERG) potassium channel, sequence (Q12809 whole entry, looked up): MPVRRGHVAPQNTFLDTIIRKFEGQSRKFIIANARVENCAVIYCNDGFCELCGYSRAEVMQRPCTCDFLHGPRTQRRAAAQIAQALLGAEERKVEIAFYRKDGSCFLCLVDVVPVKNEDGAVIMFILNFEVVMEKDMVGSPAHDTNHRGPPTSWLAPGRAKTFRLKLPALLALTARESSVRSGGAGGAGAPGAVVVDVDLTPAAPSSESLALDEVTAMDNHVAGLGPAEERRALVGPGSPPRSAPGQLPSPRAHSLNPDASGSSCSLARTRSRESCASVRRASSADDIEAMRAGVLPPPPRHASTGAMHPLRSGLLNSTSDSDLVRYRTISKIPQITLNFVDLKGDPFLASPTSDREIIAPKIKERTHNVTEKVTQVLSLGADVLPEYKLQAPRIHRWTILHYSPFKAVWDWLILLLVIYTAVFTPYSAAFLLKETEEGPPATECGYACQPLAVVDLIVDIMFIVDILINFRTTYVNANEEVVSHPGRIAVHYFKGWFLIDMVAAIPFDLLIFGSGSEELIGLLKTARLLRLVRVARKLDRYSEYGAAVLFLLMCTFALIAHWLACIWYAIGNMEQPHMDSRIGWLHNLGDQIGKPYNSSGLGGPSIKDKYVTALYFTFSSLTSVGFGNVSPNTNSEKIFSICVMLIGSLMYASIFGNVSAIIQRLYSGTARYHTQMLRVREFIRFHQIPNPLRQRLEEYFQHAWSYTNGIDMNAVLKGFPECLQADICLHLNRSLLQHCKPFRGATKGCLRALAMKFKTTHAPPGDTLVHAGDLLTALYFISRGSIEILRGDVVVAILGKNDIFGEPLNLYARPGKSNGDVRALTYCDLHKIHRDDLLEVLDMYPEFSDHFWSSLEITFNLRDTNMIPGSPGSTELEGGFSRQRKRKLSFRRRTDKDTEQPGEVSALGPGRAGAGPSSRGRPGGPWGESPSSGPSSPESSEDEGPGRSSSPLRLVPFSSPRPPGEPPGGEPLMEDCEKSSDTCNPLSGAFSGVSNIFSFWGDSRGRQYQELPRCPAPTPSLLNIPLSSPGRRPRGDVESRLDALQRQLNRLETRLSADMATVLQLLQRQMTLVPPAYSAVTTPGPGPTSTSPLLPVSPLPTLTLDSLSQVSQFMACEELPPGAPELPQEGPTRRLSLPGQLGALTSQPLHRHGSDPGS

SMILES	hERG current change (%, negative = inhibition) at 10uM
CCCCC(=O)OCc1nc2ccccc2s1	10.1%
CCC(=O)NCC(c1cccs1)S(=O)(=O)c1ccc(C)cc1 (centres unmarked)	15.3%
COc1ccccc1OCCC(=O)OCC(=O)c1c(N)n(C)c(=O)n(C)c1=O	-10.3%
CCOC(=O)Cc1csc(NC(=O)c2sc3nc4c(C)cc(C)cc4cc3c2N)n1	-0.163%
COc1ccc(/C=N/Nc2nc3ccccc3c(=O)[nH]2)cc1	-18.1%
COC(=O)c1c(NC(=O)CN2CCCc3ccccc32)sc(C)c1C	10.5%
Cc1ccc(C(=O)OCC(=O)NCc2ccco2)cc1	-8.9%
COc1ccc(C(C(=O)NC2CCCCC2)N(C(=O)c2snc(C(N)=O)c2N)c2ccccc2OC)cc1 (centres unmarked)	11.4%
COc1ccc(/C=C/C(=O)Oc2ccc(C)cc2)cc1	-14.4%
Cc1ccccc1NC(=O)c1ccno1	10.4%
COCCNC(=O)c1cc(-c2ccc(OC)c(OC)c2)on1	-1.95%
COc1ccccc1NC(c1cccnc1)c1ccc2cccnc2c1O (centres unmarked)	5.53%
CCC(=O)NC(=S)Nc1ccc(NC(=O)COc2ccc(Cl)cc2Cl)cc1	10.7%
CCCc1nnc(SCC(=O)Nc2cccc(C(F)(F)F)c2)o1	-0.0577%
CCCC(CCC)C(=O)Oc1cc(C)[nH]c(=O)c1[N+](=O)[O-]	20.2%
O=C(CSc1nccc2ccccc12)N1CCN(Cc2ccc3c(c2)OCO3)CC1	-40.5%
O=C(CSc1nnc(NC(=O)C2CC2)s1)NCc1cccs1	11%
CC(NC(=O)Cn1cnc([N+](=O)[O-])n1)c1ccccc1 (centres unmarked)	12.2%
CN(C)S(=O)(=O)c1ccc(N2CCCC2)c(C(=O)Nc2nc3c(ccc4ccccc43)s2)c1	14.9%
COc1ccc(-n2cc(-c3ccccc3)c3c(NN4CCOCC4)ncnc32)cc1	-40.6%
Cn1c(=O)c2[nH]c(-c3ccccc3O)nc2n(C)c1=O	23%
Cc1ccc(S(=O)(=O)NCc2ccco2)cc1C	-11.9%
NNC(=O)c1nc[nH]c1C(=O)Nc1ccccc1[N+](=O)[O-]	29.2%

SMILES	hERG current change (%, negative = inhibition) at 10uM
C#CCOCCOCCOCCNc1nc(N2CCN(C(=O)CCCCCCCCCCNC(=O)[C@H](CCCCN)n3cc(C)nn3)CC2)nc(N2CCN(C(=O)CCCCCCCCCCNC(=O)[C@H](CCCCN)n3cc(CCCC(=O)O)nn3)CC2)n1	9.15%
O=C(c1ccccc1NS(=O)(=O)c1ccc(F)cc1)N1CCCCC1	-4.35%
C=CCN1C(=O)C(=O)N(CC(=O)c2ccc3c(c2)CCCC3)C1=O	-3.16%
Cc1ccc2oc(C(=O)N(CCO)Cc3ccccc3)c(C)c2c1	0.289%
Cc1ccccc1-c1nc(CN2CCC(C(=O)NCCCN3CCCC3)CC2)c(C)o1	14.4%
COC(=O)c1cccc(NC(=S)NC(C)C)c1	15.3%
N[C@@]12CCc3nonc3[C@]1(O)CC(c1ccccc1)=[N+]2[O-]	-0.645%
COc1cc(C2NC(=S)NC(c3ccccc3)=C2C(C)=O)cc(Br)c1OCC(N)=O (centres unmarked)	11.5%
O=C(N1CCOCC1)C12CCC3CC(CC(C3)C1)C2	-4.11%
O=S(=O)(NC1CCCCC1Oc1ccccc1)c1ccccc1 (centres unmarked)	-3.79%
Cc1ccc(C)c(NC(=O)CCc2nnc3ccc(N4CCCC4)nn23)c1	-12.1%
CCOc1ccc(NC(=S)Nc2ccc(C)c([N+](=O)[O-])c2)cc1.Cl	17.7%
Nc1nc(-c2ccccn2)nc(N)c1Cc1ccccc1F	-13.4%
CC(C)(C)NC(=O)C1Cc2ccccc2CN1 (centres unmarked)	18.9%
Cc1cc(Cl)ccc1OCC(=O)NCCCCc1ccccc1	12.2%
CCC(C)(C)NC(=O)CN(Cc1ccc2c(c1)OCO2)C(=O)CCC(=O)Nc1nccs1	-13.5%
CC(=O)N/C(=C/c1ccc2c(c1)OCO2)C(=O)NC(Cc1ccccc1)C(=O)O (centres unmarked)	2.76%
CN1CCN(c2ccc(NC(=O)N3CCc4ccccc43)cc2)CC1	-18.3%
Cc1ccc(-c2cc(NC(=O)c3ccccc3)on2)cc1	18.2%
Cc1ccc(C(CNS(=O)(=O)c2ccc(C)cc2)N2CCN(C)CC2)cc1 (centres unmarked)	-62.8%
CCOc1ncccc1C(=O)NNC(=O)c1ccccc1-n1cccc1	17%
COCCSc1ccccc1C(=O)N1CCN(Cc2ccccc2)CC1	-1.04%
COC(=O)CC1=NC(=O)CS1	0.623%

SMILES	hERG current change (%, negative = inhibition) at 10uM
O=C(CSc1ncccn1)Nc1cc(Cl)ccc1[N+](=O)[O-]	25.1%
O=C(CSc1nnc(C2CC2)n1Cc1ccccc1)N1CCN(S(=O)(=O)c2ccccc2)CC1	-19.9%
O=C(COC(=O)c1ccccc1-n1cnnn1)c1ccc(F)c(F)c1	-3.28%
COCC(C)NC(=O)Cn1c(SCc2ccccc2)nc2ccccc21 (centres unmarked)	2.51%
c1ccc2sc(C3CCCNC3)nc2c1 (centres unmarked)	-2.43%
COC(=O)c1ccncc1C(=O)Nc1ccc(F)cc1	25.4%
Cc1nnc(SCC(=O)N2CCOCC2)s1	-0.727%
C=CCNC(=O)c1onc(CS(=O)(=O)c2cc(C)cc(C)c2)c1C(=O)NCC=C	-8.18%
CCCSc1nc(=O)n2cc(C)ccc2n1	-10.3%
O=C(Nc1ccncc1)c1cc(F)cc(F)c1	-8.15%
O=C(NC(C(=O)NCCN1CCOCC1)C12CC3CC(CC(C3)C1)C2)C1CCCCC1 (centres unmarked)	3.03%
Cc1cc(C(=O)NCc2ccco2)sc1C	16.2%
Cc1cc(O)c(CN2CCN(c3ccccc3)CC2)cc1C	3.98%
Cc1nc(NC(=O)CCc2ccccc2)ccc1Br	-5.7%
CCOC(=O)c1c([N+](=O)[O-])c(C)[nH]c(=O)c1C#N	21.1%
COc1cc(SC)ccc1C(=O)N(CC(=O)Nc1ccccc1Br)Cc1ccco1	-10.4%
COc1cc(/C=C2\CCCc3c2nc2ccccc2c3C(=O)O)cc(Br)c1O	-4.39%
CCOC(=O)C1CCN(Cc2nc3ccc([N+](=O)[O-])cc3c(=O)n2-c2ccc(OC)cc2OC)CC1	-53.8%
CCC(=O)N1C(=O)C2(Nc3ccccc3N2)c2ccccc21	7.41%
CCn1c(C)cc(C)c(C#N)c1=O	35.2%
O=C(CSc1n[nH]c(-c2cccnc2)n1)Nc1ccc([N+](=O)[O-])cc1	-24.6%
Cc1cccc(CC(C)NC(=O)c2cc(COc3ccc(C)c(C)c3)on2)n1 (centres unmarked)	-9.05%
COc1ccc(OC)c(S(=O)(=O)CC(O)CS(=O)(=O)c2ccccc2)c1 (centres unmarked)	13.8%

SMILES	hERG current change (%, negative = inhibition) at 10uM
Cc1ccc2[nH]c(CN3CCN(C)C(CCO)C3)c(C)c2c1 (centres unmarked)	-13.1%
Cn1c(SCC(=O)N/N=C/c2cc([N+](=O)[O-])ccc2O)nnc1-c1ccccc1	10.5%
O=C(Cn1ccc(C(F)(F)F)n1)N/N=C/c1cccs1	4.49%
O=C(NCCc1ccc(Cl)cc1)c1cnc2n(c1=O)CCS2	-20.3%
O=C(Nc1ccccc1O)/C(=C\c1ccccc1)NC(=O)c1ccccc1	-39.2%
O=C(N/C(=C/c1ccc(Br)cc1)C(=O)N1CCCC1=O)c1ccco1	-42.4%
Cc1cc(=S)[nH]c(=S)[nH]1	6.98%
CN(CC(=O)Nc1ccccc1Cl)C(=O)COc1cccc2c1OC(C)(C)C2	1.77%
Cc1cc(OCC(=O)NC2CC2)c2c(C)c(C)c(=O)oc2c1	15.5%
C=CCN1C(=O)c2ccc(C(=O)N3CCN(S(=O)(=O)c4ccc(C(C)C)cc4)CC3)cc2C1=O	-5.78%
Cc1ccc2nc(-c3ccncc3)cc(C(=O)Nc3ccncc3)c2c1	-0.323%
COCCN(C(=O)CCC(=O)Nc1ccccn1)C(C(=O)NC1CCCC1)c1ccc(OC)cc1 (centres unmarked)	2.56%
CCc1cc(C(=O)NNC(=O)CCN2CCN(c3ccccc3)CC2)sc1C	11.8%
CC(=O)N1CCC(N(CCN2CCOCC2)C(=S)Nc2cc(C)cc(C)c2)CC1	-2.98%
CCN(CC)c1ccc([N+](=O)[O-])cc1/C=N/NC(=O)CC#N	-33.8%
O=S(=O)(NCc1cccnc1)c1ccc2c(c1)OCCO2	0.45%
CN(C)S(=O)(=O)N1CCC(Oc2cccc(C(=O)NCCCC3CCCC3)c2)CC1	-7.54%
Cc1ccc(-c2nnc3n2N=C(c2ccc(Br)cc2)CS3)cc1	-1.26%
CN(C)C1(CNC(=O)C2CCC(=O)N(CCc3ccc(Cl)cc3)C2)CCCCC1 (centres unmarked)	-17.3%
COc1cc(C(=O)Nc2nnc(SC)s2)c([N+](=O)[O-])cc1OC	9.4%
